This note sets out measurements from PMC13193388, “Dimerization‐dependent NOTCH receptor transactivation unveils a class of highly selective NOTCH signalling inhibitors” (The Febs Journal, 2025).

Usually stoichiometry N stands for the number of molecules, sites or subunits per partner or assembly.

This data set concerns the molecule itself. The experiment in a line: SEC-MALS; purified N3 ECD; Superdex 200 10/30 GL; 38 mM NaH2PO4, 12 mM Na2HPO4, 150 mM NaCl, 200 ppm NaN3, pH 7.4; autosampler at 4 °C. In general terms: In gel filtration, larger molecules generally elute earlier.

B1: purified recombinant HIS epitope-tagged NOTCH3 extracellular domain (domain or fragment)
chain: not shown
modifications: glycosylated
notes: NOTCH3, human, complete extracellular domain; written as one chain so that the self-association rows stand for chain with chain; also called N3 ECD; NOTCH3-ECD protein; source: PEC.3.30 (modified Per.E2A) cells, purified from supernatant (HisTrap HP, Superdex 200); not shown: HIS, C-terminal, kept
With B1, the “stoichiometry N” value was 2.
